Target: T1, His tagged Mad1(485–718) (human, UniProt Q9Y6D9 485-718)
T1 construct: The Mad1 chain of m24; source: E. coli BL21(DE3), co-purified with Mad2 (HiTrap Ni column, Mono Q, Superdex 75)
T1 sequence (looked up): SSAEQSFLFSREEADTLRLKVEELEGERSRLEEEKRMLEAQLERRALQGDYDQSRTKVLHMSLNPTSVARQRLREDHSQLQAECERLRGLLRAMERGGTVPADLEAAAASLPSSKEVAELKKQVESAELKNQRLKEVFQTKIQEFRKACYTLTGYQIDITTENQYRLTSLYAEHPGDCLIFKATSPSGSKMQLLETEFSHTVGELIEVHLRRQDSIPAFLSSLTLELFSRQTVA
Experiment: SEC-MALS; printed as 'multi-angle light scattering analysis' of all recombinant Mad1 complexes, purified from E. coli (Ni column, size exclusion); confirmed their predicted composition
Settings: both partners purified

B1: Mad2 (recombinant) (natural protein)
chain: not shown
notes: The Mad2 chain of m24
B1: binds.

From PMC5472792, “Bub1 positions Mad1 close to KNL1 MELT repeats to promote checkpoint signalling” (Nature Communications, 2017)
